Patent US8993717B2, “Gadd45beta targeting agents” (Imperial Innovations Limited, priority 2009, dated 2015)
At least one peptide structure holds a part that was inferred or is arguable (an end, a ring closure or a residue). For part of these data: At least one compound was matched to its structure with a doubt left. Square brackets hold non-standard residues; d marks the D form. Peptide text beside a SMILES is read from it. * marks the point of attachment. dCha = N[C@H](CC1CCCCC1)C(=O)O; NHPhenethyl = c1ccc(CCN*)cc1; Cbz = O=C(OCc1ccccc1)*; NHBn = c1ccc(CN*)cc1; Bz = O=C(c1ccccc1)*; NHPh = c1ccc(N*)cc1

How the values were obtained:
Gadd45β/MKK7 interaction = target: T1, Gadd45β/MKK7 interaction (Homo sapiens, UniProt O14733); test: ELISA competition assay of biotin-hGadd45β binding to coated GST-MKK7
T1 construct: The GST-fused full-length kinase was coated for 16 h at 4° C., at a concentration of 42 nM; made in house
T1 sequence (O14733 1-419): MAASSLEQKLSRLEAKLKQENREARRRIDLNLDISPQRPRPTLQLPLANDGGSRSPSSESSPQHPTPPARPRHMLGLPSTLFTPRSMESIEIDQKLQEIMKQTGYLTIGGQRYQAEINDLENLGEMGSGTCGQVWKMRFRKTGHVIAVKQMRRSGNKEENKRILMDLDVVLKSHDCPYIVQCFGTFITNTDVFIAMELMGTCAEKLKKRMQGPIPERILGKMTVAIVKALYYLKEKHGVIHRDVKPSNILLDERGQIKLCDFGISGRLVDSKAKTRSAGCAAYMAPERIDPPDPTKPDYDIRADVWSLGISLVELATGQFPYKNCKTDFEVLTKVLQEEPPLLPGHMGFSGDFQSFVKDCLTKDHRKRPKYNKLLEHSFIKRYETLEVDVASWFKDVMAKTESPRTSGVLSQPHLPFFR
Procedure: To evaluate the inhibitory properties of peptides, ELISA-based assays were performed. In these assays, a fusion protein of glutathione S-transferase (GST) and mitogen-activated protein kinase kinase 7 (MKK7) was coated onto wells of a 96-well plate, while biotinylated-hGadd45β was used in solution. hGadd45β was biotinylated using an EZ Link NHS-LC-biotin kit (Pierce, Rockford, Ill.), according to Tornatore et al. (Tornatore L., et al. (2008). J Mol Biol; 378:97-111).
Firstly, the association between Gadd45β and MKK7 was investigated by ELISA assays as also reported in Tornatore et al. (Tornatore L., et al. (2008). J Mol Biol; 378:97-111). The GST-fused full-length kinase was coated for 16 h at 4° C., at a concentration of 42 nM in buffer A (25 mM Tris pH 7.5, 150 mM NaCl, 1 mM DTT and 1 mM EDTA) into wells of a 96-well microliter plate. Some wells were filled with buffer alone and were used as blanks. After incubation for 16 h at 4° C., the solutions were removed and the wells were filled with 350 μL of a 1% (w/v) solution of NFDM (Non Fat Dry Milk) in PBS (phosphate buffered saline). The plate was incubated for 1 h at 37° C. in the dark. After washing with buffer T-PBS (PBS with 0.004% (v/v) Tween detergent), the wells were filled with 100 μL of biotinylated-hGadd45β at concentrations ranging from 8.4 nM to 168 nM. Each data point was performed in triplicate. Following incubation for 1 hr in the dark at 37° C. the solutions were removed and the wells were again washed with T-PBS. Then 100 μL of a 1:10,000 dilution of horseradish peroxidase-conjugated streptavidin dissolved in buffer was added to each well and the plate incubated for 1 hr at 37° C. in the dark. After removal of the enzyme solution and washing, 100 μL of the chromogenic substrate o-phenylendiamine (0.4 mg/mL in 50 mM sodium phosphate-citrate buffer, containing 0.4 mg/mL of urea in hydrogen peroxide) was added and the colour was allowed to develop in the dark for 5 min. The reaction was stopped by adding 50 μL of 2.5 M H2SO4. The absorbance at 490 nm was measured in all wells and the values were averaged after subtracting the corresponding blanks. Bound protein was then detected as described above. The molar concentration of biotinylated-hGadd45β at which the half-maximal ELISA signal is detected corresponds to the dissociation constant (KD) (Friguet B, Chaffotte A F, Djavadi-Ohaniance L, Goldberg M E. J Immunol Methods. 1985 Mar. 18; 77 (2):305-19). Binding competition assays were performed by coating GST-MKK7 at 42 nM as described, a concentration of biotinylated-hGadd45β of 21 nM (pre-saturation conditions 1:0.5 mol/mol ratio) and, in a first test, using competitors at 21 nM. The binding of biotinylated hGadd45β to GST-MKK7 was analyzed in the presence of increasing amounts of competitor peptide (concentrations ranging from 0.01 nM to 100 nM), and the values obtained with the competitor were expressed as the percentage of the binding detected in the absence of competitor. […] According to the convention adopted in the table “L-Xaa” and “D-Xaa” refer to the L and D forms of amino acid Xaa.
A simplified combinatorial peptide library (Marasco et al. 2008, Curr. Protein Pept. Sci. 9:447-67) was screened for antagonists of the Gadd45β/MKK7 interaction. This library contained a total of 12^4=20,736 different tetrapeptides formed by combinations of the following amino acid residues Gln (Q), Ser (S), Arg (R), Ala (A), Tyr (Y), Pro (P), Met (M), Cys (C), Phe (F), Leu (L), His (H), Asp (D), and was iteratively deconvoluted in four steps by ELISA competition assays using at each step coated MKK7 (42 nM), soluble-biotin-hGadd45β (21 nM) and each of the 12 sub-libraries (42 nM).

[1] = test system: NCI-H929, KMS-11, ARH-77, JJN-3 and U266 multiple myeloma cell lines; test: Propidium iodide nuclear staining assay (sub-G1 DNA content); assay type: cell-based, human; conditions: 10 μM, 72 or 144 hrs
[2] = test system: U266, KMS-11, NCI-H929, ARH-77, JJN-3, KMS-12, KMS-18, KMS-27 cells; test: [3H]thymidine incorporation assay, panel of 8 sensitive multiple myeloma cell lines; assay type: cell-based, human; conditions: treatment for 144 hrs; read-out: IC50s ranging over the sensitive multiple myeloma cell lines
Procedure: Cultures of multiple myeloma cells and treatments with Z-DTPs were carried out as described in Example 8 (see below). The effects of Z-DTPs on the survival/proliferation of multiple myeloma cells were evaluated by the use of [^3H]thymidine) incorporation assays, performed as also described in Example 8. The amount of cell proliferation measured with each of the Z-DTPs' concentrations used and with the untreated cultures (i.e. cultures incubated with medium alone), was expressed as counts per minute (c.p.m.)—which directly correlate with the extent of cell proliferation. All experiments were performed in triplicate.

JNK = JNK activation by western blotting with anti-phospho-JNK antibody; assay type: cell-based, human; conditions: KMS11 and NCI-H929 cells, 10 μM, 3-24 hrs
[3] = test system: KMS12 multiple myeloma cells; test: [3H]thymidine incorporation assay in KMS12; assay type: cell-based, human; conditions: Day 6, Table IV
[4] = Table VI, compounds 0.01-100 nM

CC(=O)N[C@H](Cc1ccccc1)C(=O)N[C@H](Cc1ccccc1)C(N)=O [A1 bis, Ac-FF-NH2] (Ac-[dF]-[dF]-NH2)
IC50 (Gadd45β/MKK7 interaction; [4]): > 100 nM

O=C(O)C[C@@H](NC(=O)c1ccc(O)cc1)C(=O)N[C@H](Cc1c[nH]cn1)C(=O)Nc1ccccc1 [Compound 5, X2-Asp-His-Y1]
IC50 (Gadd45β/MKK7 interaction; Table V, peptides 0.01-10 nM): 0.316 nM

O=C(O)C[C@@H](NC(=O)c1ccc(O)cc1)C(=O)N[C@H](Cc1c[nH]cn1)C(=O)NCc1ccccc1 [Compound 6, X2-Asp-His-Y2]
IC50 (Gadd45β/MKK7 interaction; Table V, peptides 0.01-10 nM): 0.25 nM

N=C(N)NCCC[C@@H](NC(=O)[C@@H](CCC(=O)O)NC(=O)[C@@H](Cc1ccc(O)cc1)NC(=O)OCc1ccccc1)C(=O)N[C@H](Cc1ccccc1)C(N)=O [Compound 9, Z-D-Tyr-D-Glu-D-Arg-D-Phe-NH2] (Cbz-[dY][dE][dR][dF]-NH2)
induction of apoptosis (sub-G1 DNA content) [1]: triggering of apoptosis | IC50 [2]: 10 to 4500 nM | IC50 (Gadd45β/MKK7 interaction; Table V, peptides 0.01-10 nM): 0.19 nM | JNK activation (JNK phosphorylation) (JNK): strong activation of JNK | IC50 [3]: 67 nM

N=C(N)NCCC[C@@H](NC(=O)[C@@H](CCC(=O)O)NC(=O)c1ccccc1)C(=O)Nc1ccccc1 [Compound 10, X1-Glu-Arg-Y1] (Bz-[dE]-[dR]-NHPh)
IC50 (Gadd45β/MKK7 interaction; Table V, peptides 0.01-10 nM): 0.5 nM

N=C(N)NCCC[C@@H](NC(=O)[C@@H](CCC(=O)O)NC(=O)c1ccccc1)C(=O)NCc1ccccc1 [Compound 11, X1-Glu-Arg-Y2] (Bz-[dE]-[dR]-NHBn)
IC50 (Gadd45β/MKK7 interaction; Table V, peptides 0.01-10 nM): 0.5 nM

N=C(N)NCCC[C@@H](NC(=O)[C@@H](CCC(=O)O)NC(=O)c1ccccc1)C(=O)NCCc1ccccc1 [Compound 12, X1-Glu-Arg-Y3] (Bz-[dE]-[dR]-NHPhenethyl)
IC50 (Gadd45β/MKK7 interaction; Table V, peptides 0.01-10 nM): 0.301 nM

N=C(N)NCCC[C@@H](NC(=O)[C@@H](CCC(=O)O)NC(=O)c1ccc(O)cc1)C(=O)Nc1ccccc1 [Compound 13, X2-Glu-Arg-Y1]
IC50 (Gadd45β/MKK7 interaction; Table V, FIG. 3C): > 1 nM

N=C(N)NCCC[C@@H](NC(=O)[C@@H](CCC(=O)O)NC(=O)c1ccc(O)cc1)C(=O)NCc1ccccc1 [Compound 14, X2-Glu-Arg-Y2]
IC50 (Gadd45β/MKK7 interaction; Table V, FIG. 3C): > 1 nM

NC(=O)[C@@H](Cc1ccccc1)NC(=O)[C@@H](CCC(=O)O)NC(=O)[C@@H](Cc1ccc(O)cc1)NC(=O)OCc1ccccc1 [Compound 16, Z-Tyr-Glu-Phe-NH2] (Cbz-[dY]-[dE]-[dF]-NH2)
IC50 (Gadd45β/MKK7 interaction; Table V, peptides 0.01-10 nM): 0.158 nM

CC(=O)N[C@H](Cc1ccc(O)cc1)C(=O)N[C@H](CCCNC(=N)N)C(=O)N[C@H](CC1CCCCC1)C(N)=O [Compound 21, Ac-Tyr-Arg-Cha] (Ac-[dY]-[dR]-[dCha]-NH2; C-terminus assumed)
IC50 (Gadd45β/MKK7 interaction; Table V, FIG. 3C): > 5 nM

CC(=O)N[C@H](Cc1ccc(O)cc1)C(=O)NCCC(=O)N[C@H](Cc1ccccc1)C(N)=O [Compound A3, Ac-YbetaAla-F-NH2]
IC50 (Gadd45β/MKK7 interaction; [4]): > 100 nM

CC(=O)N[C@H](Cc1ccc(O)cc1)C(=O)N[C@H](Cc1ccc(O)cc1)C(N)=O [Compound A7, Ac-YY-NH2] (Ac-[dY]-[dY]-NH2)
IC50 (Gadd45β/MKK7 interaction; [4]): > 100 nM

CC(=O)N[C@H](Cc1ccccc1)C(=O)N[C@H](Cc1ccc(O)cc1)C(N)=O [Compound A8, Ac-FY-NH2] (Ac-[dF]-[dY]-NH2)
IC50 (Gadd45β/MKK7 interaction; [4]): > 100 nM
